Some of the results follow. The full chains were built here from the parent and the listed change. Values near 0.05 are background.
B1: TEV protease; numbered along this chain (parent)
chain: MGESLFKGPRDYNPISSSICHLTNESDGHTTSLYGIGFGPFIITNKHLFRRNNGTLVVQSLHGVFKVKDTTTLQQHLVDGRDMIIIRMPKDFPPFPQKLKFREPQREERICLVTTNFQTKSMSSMVSDTSCTFPSGDGIFWKHWIQTKDGQCGSPLVSTRDGFIVGIHSASNFTNTNNYFTSVPKNFMELLTNQEAQQWVSGWRLNADSVLWGGHKVFMVKPEEPFQPVKEATQL

Variants of: B1
Experiment: raw area under fraction-flipped curve 0-4 h after induction (AUC4h, not background-subtracted), DNA-recorder readout of cleavage of the substrate (dimensionless); higher = more cleavage of the substrate by the protease variant
Details: temperature: 34 °C; time window: 0-4 h after rhamnose induction
Experimental: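 In vivo DNA recorder in E. coli TOP10(DE3) ΔrhaA at 34 °C. Each TEVp single-site mutant (parent TEVp 0) is paired with a single-site variant of the 7-mer TEVs (canonical ENLYFQ|S). The substrate sits between flexible linkers in a Bxb1-sfGFP-TEVs-SsrA fusion, so cleavage stabilises Bxb1 and speeds flipping of a recombination array, read by NGS. The value is the raw area under the fraction-flipped curve over 0-4 h after rhamnose induction (AUC4h), with ≥20 reads per time point. It is not background-subtracted; inactive controls average about 0.047.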
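Note: Bxb1 expression induced with 0.2% (w/v) L-rhamnose at OD600 near 0.5, cultures sampled hourly, flipped fraction per protease–substrate barcode pair counted by paired-end Illumina sequencing.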

Row | Variant | area with substrate ENLCFQS | area with substrate ENLDFQS | area with substrate ENLFFQS | area with substrate ENLIFQS | area with substrate ENLKFQS | area with substrate ENLPFQS | area with substrate ENLQFQS | area with substrate ENLRFQS | area with substrate ENLSFQS | area with substrate ENLTFQS | area with substrate ENLWFQS | area with substrate ENLEFQS | area with substrate ENLGFQS | area with substrate ENLHFQS | area with substrate ENLLFQS | area with substrate ENLNFQS | area with substrate ENLVFQS | area with substrate ENLAFQS | area with substrate ENLMFQS
1 | F49R | 0.0551 | 0.056 | 0.0562 | 0.0501 | 0.0686 | 0.0619 | 0.0683 | 0.0462 | 0.0554 | 0.0721 | 0.0566 | – | – | – | – | – | – | – | –
2 | F49G | 0.0467 | 0.0601 | 0.0589 | 0.0443 | 0.0454 | 0.0597 | 0.0719 | – | 0.0516 | – | – | 0.0533 | 0.0529 | 0.0535 | 0.0598 | 0.0561 | 0.0683 | – | –
3 | E103A | 0.0657 | 0.0564 | – | 0.11 | 0.0762 | 0.0567 | – | – | 0.0548 | – | – | 0.0622 | – | 0.0626 | – | 0.0617 | 0.0841 | – | –
4 | K46P | 0.0646 | 0.0595 | 0.0582 | – | 0.0621 | 0.0511 | – | 0.0648 | 0.0518 | – | 0.0494 | 0.0625 | 0.0684 | 0.056 | 0.0592 | 0.0592 | – | – | –
5 | E223T | 0.0936 | 0.0659 | 0.096 | 0.0925 | 0.0597 | 0.0595 | 0.0764 | 0.0783 | 0.0637 | – | – | 0.0714 | 0.0646 | 0.0698 | – | 0.0595 | 0.0747 | 0.0599 | 0.0231
6 | R50D | 0.0696 | 0.0633 | 0.0685 | – | – | – | 0.0625 | 0.0668 | 0.0665 | – | – | – | – | 0.0672 | 0.0828 | 0.0529 | – | – | 0.0739
7 | S4R | 0.0737 | 0.0564 | 0.0942 | – | 0.0911 | 0.0313 | 0.113 | 0.0825 | 0.0479 | 0.0855 | 0.0741 | 0.0627 | 0.0709 | 0.0343 | 0.0848 | 0.0613 | – | – | 0.0951
8 | H29L | 0.0681 | – | 0.0707 | 0.0854 | 0.0678 | 0.048 | 0.0967 | 0.0841 | 0.0828 | – | – | 0.0667 | 0.0639 | 0.0723 | 0.0876 | 0.0584 | 0.166 | – | –
9 | P225I | – | 0.0465 | 0.0745 | 0.0985 | 0.102 | – | – | 0.0563 | – | – | – | – | 0.0707 | 0.0598 | 0.095 | 0.067 | – | 0.0626 | 0.0673
10 | P225F | – | 0.0679 | – | 0.0688 | 0.069 | – | 0.0605 | 0.0765 | 0.0518 | – | 0.0626 | 0.0622 | 0.0668 | – | 0.0683 | 0.0641 | 0.078 | 0.0694 | –
11 | E231H | – | 0.0765 | – | – | 0.069 | 0.0505 | 0.0469 | 0.0897 | 0.0587 | – | – | – | – | 0.07 | 0.062 | 0.0453 | – | 0.0673 | –
12 | D27A | 0.0704 | 0.058 | 0.078 | 0.0798 | 0.0699 | 0.0599 | 0.0707 | 0.0765 | 0.0564 | – | – | 0.0745 | 0.0775 | 0.0553 | 0.0657 | 0.08 | 0.0577 | – | –
13 | Q234I | 0.0656 | 0.0611 | 0.0883 | – | 0.0779 | 0.0615 | – | – | 0.0591 | – | – | – | – | 0.0721 | – | 0.0668 | – | 0.083 | –
14 | Q234K | 0.0777 | 0.0575 | 0.0799 | 0.0859 | 0.0828 | 0.0806 | 0.0743 | 0.0798 | – | – | 0.0691 | – | 0.0651 | 0.0768 | 0.0766 | – | – | 0.0564 | 0.0742
15 | F226W | 0.0783 | 0.0594 | 0.108 | – | 0.0701 | 0.0621 | – | 0.0629 | 0.068 | – | – | 0.071 | – | 0.0756 | 0.0668 | 0.0661 | – | 0.094 | 0.0752
16 | K230M | 0.0625 | – | 0.0757 | 0.0723 | 0.0729 | 0.0454 | 0.082 | – | 0.055 | 0.0587 | 0.0717 | 0.0587 | 0.0517 | 0.0749 | 0.0673 | 0.0587 | 0.0838 | 0.062 | 0.0696
17 | K230V | – | 0.0601 | 0.109 | – | 0.0718 | 0.0548 | 0.0527 | – | 0.08 | – | 0.0078 | – | – | 0.0785 | 0.0702 | 0.0663 | – | 0.0625 | –
18 | C20R | 0.0453 | 0.0524 | 0.0463 | 0.0444 | 0.0458 | 0.0557 | 0.0445 | 0.0567 | 0.0423 | – | 0.033 | 0.0783 | – | 0.0464 | 0.0499 | 0.0409 | – | – | –
19 | T44W | 0.0511 | 0.0532 | 0.0555 | 0.0374 | 0.0466 | 0.0436 | – | 0.0608 | 0.0289 | – | 0.0406 | 0.084 | 0.054 | 0.0506 | 0.0498 | 0.0313 | – | – | –
20 | W141M | 0.0545 | 0.0726 | 0.0647 | 0.0641 | 0.0584 | 0.0528 | 0.0566 | – | – | – | – | 0.0599 | – | 0.0524 | 0.0568 | 0.0656 | 0.0444 | – | –
21 | T30F | 0.0795 | 0.0597 | 0.0777 | 0.0731 | 0.0902 | 0.0537 | 0.0713 | 0.0839 | 0.0561 | – | 0.0579 | 0.0689 | 0.0784 | – | 0.0693 | 0.0617 | 0.0978 | – | 0.0813
22 | I139S | 0.0629 | 0.0564 | 0.0965 | 0.102 | – | 0.0539 | 0.0744 | 0.108 | – | – | 0.0713 | 0.0565 | – | 0.0751 | 0.0785 | 0.0667 | 0.105 | – | –
23 | V220I | – | 0.0673 | 0.0958 | 0.0776 | 0.0806 | 0.0563 | – | – | 0.0538 | 0.0813 | – | 0.105 | – | – | – | – | – | 0.0651 | –
24 | V220P | 0.0652 | 0.0635 | 0.0769 | 0.105 | 0.0741 | 0.0599 | 0.0643 | 0.0771 | 0.0664 | – | – | 0.0635 | 0.0843 | 0.0671 | – | 0.0632 | – | 0.0631 | –
25 | H143R | 0.0509 | 0.0601 | 0.0693 | 0.0525 | 0.0638 | 0.0517 | – | 0.0619 | 0.0576 | – | 0.0754 | 0.0585 | 0.0664 | 0.0504 | 0.0528 | 0.0563 | 0.0498 | – | –
26 | K68T | 0.0833 | 0.0692 | – | 0.103 | 0.0626 | 0.0774 | 0.0539 | 0.07 | – | – | 0.061 | – | – | 0.0761 | – | – | – | – | –
27 | M122Q | 0.0739 | 0.0764 | 0.0865 | – | – | 0.0749 | – | 0.0581 | 0.0761 | 0.078 | 0.0671 | 0.0807 | 0.0521 | 0.0654 | – | 0.0629 | 0.0907 | – | 0.0849
